Test results published in patent US20240075157A1 (MAGENTA THERAPEUTICS, published 2024).

Legend:
[1] = molecular target: T1, hFcγR2A 167H (human, UniProt P12318 36-218, tagged with biotin or histidine (which one is not stated for this receptor)); experiment: BLI
T1 sequence (looked up): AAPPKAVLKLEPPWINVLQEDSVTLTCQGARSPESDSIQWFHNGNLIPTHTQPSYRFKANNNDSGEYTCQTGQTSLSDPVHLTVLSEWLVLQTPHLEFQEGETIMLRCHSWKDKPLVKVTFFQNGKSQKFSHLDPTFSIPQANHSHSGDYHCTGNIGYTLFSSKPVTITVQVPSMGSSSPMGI

[2] = molecular target: T2, hFcγR3A 176V (human, UniProt P08637 partial chain, tagged with biotin or histidine (which one is not stated for this receptor)); experiment: BLI
[3] = molecular target: T3, hFcγR2B (human, UniProt P31994 46-217, tagged with biotin or histidine (which one is not stated for this receptor)); experiment: BLI, Bio-hFcR2B
T3 sequence (looked up): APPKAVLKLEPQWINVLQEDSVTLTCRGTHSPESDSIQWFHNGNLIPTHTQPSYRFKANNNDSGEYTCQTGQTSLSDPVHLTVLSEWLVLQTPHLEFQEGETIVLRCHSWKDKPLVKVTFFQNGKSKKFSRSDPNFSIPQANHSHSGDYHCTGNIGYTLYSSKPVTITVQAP

[4] = molecular target: T2, hFcγR3A 176V; experiment: BLI, Bio-hFcR3A 176V
[5] = molecular target: T4, cynomolgus FcγRI (cyno FcγR1) (cynomolgus, UniProt A0A2K5U901 33-309, Tagged with histidine ('His-cyno FcR1') for capture on the biosensor; the tag is not in the letters.); experiment: BLI, His-cyno FcR1
T4 construct: Immobilised on streptavidin or anti-histidine biosensors at 10-25 nM; not shown: the histidine (or biotin) tag used to immobilise the receptor

[6] = molecular target: T2, hFcγR3A 176V; experiment: BLI, FcR3A 176V

T2 sequence (P08637 17-208 F176V limits assumed): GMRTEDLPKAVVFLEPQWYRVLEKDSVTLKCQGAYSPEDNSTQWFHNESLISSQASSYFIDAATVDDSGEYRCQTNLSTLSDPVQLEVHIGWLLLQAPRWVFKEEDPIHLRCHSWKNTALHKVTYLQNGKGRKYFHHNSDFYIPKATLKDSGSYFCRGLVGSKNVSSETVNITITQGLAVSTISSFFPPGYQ
T4 sequence (A0A2K5U901 entry or part of it limits assumed): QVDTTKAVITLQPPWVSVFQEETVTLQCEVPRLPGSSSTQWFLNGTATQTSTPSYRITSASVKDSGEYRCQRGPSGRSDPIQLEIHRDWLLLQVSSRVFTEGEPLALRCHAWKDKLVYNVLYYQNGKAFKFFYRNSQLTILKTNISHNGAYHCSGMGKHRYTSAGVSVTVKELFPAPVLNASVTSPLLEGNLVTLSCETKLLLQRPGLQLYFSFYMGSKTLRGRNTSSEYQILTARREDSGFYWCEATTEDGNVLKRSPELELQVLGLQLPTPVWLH

B1: Ab2 D265C N297Q (antibody, human IgG1, kappa, N297Q)
heavy: EVQLVQSGAEVKKPGESLKISCKGSGYSFTNYWIGWVRQMPGKGLEWMAIINPRDSDTRYRPSFQGQVTISADKSISTAYLQWSSLKASDTAMYYCARHGRGYEGYEGAFDIWGQGTLVTVSS[human IgG1 constant region with D265C N297Q (EU numbers) skipped]
light: DIQMTQSPSSLSASVGDRVTITCRSSQGIRSDLGWYQQKPGKAPKLLIYDASNLETGVPSRFSGSGSGTDFTLTISSLQPEDFATYYCQQANGFPLTFGGGTKVEIKRTVAAPSVFIFPPSDEQLKSGTASVVCLLNNFYPREAKVQWKVDNALQSGNSQESVTEQDSKDSTYSLSSTLTLSKADYEKHKVYACEVTHQGLSSPVTKSFNRGEC
notes: copies: 2 + 2
**Q.** Does B1 bind [1]?
**A.** no binding (tested: 300 nM)

**Q.** Does B1 bind [2]?
**A.** no binding (tested: 300 nM)

**Q.** What about the “Normalized Response” value [3] of the same binder?
**A.** 9 % of WT

B2: Ab2 D265C.H435A (anti-CD117 antibody Ab85 with D265C and H435A) (antibody, human IgG1, kappa, name in EU numbering)
heavy: EVQLVQSGAEVKKPGESLKISCKGSGYSFTNYWIGWVRQMPGKGLEWMAIINPRDSDTRYRPSFQGQVTISADKSISTAYLQWSSLKASDTAMYYCARHGRGYEGYEGAFDIWGQGTLVTVSS[human IgG1 constant region with D265C H435A (EU numbers) skipped]
light: B1 light
**Q.** B2 was tested. Which “Normalized Response” value [4] did it give?
**A.** 1 % of WT

**Q.** Does B2 bind [2]?
**A.** no binding (tested: 300 nM)

**Q.** And the “Normalized Response” value [5]?
**A.** 49 % of WT

**Q.** What about the “Normalized Response” value [3] of the same binder?
**A.** 9 % of WT

B3: Ab2 D265C.LALA.H435A ADC2 (antibody)
heavy chain: EVQLVQSGAEVKKPGESLKISCKGSGYSFTNYWIGWVRQMPGKGLEWMAIINPRDSDTRYRPSFQGQVTISADKSISTAYLQWSSLKASDTAMYYCARHGRGYEGYEGAFDIWGQGTLVTVSSASTKGPSVFPLAPSSKSTSGGTAALGCLVKDYFPEPVTVSWNSGALTSGVHTFPAVLQSSGLYSLSSVVTVPSSSLGTQTYICNVNHKPSNTKVDKKV[human IgG1 Fc with L234A L235A D265C H435A (EU numbers) skipped]
light chain: B1 light
**Q.** Does B3 bind [6]?
**A.** no binding (tested: 600 nM)
